# Experimental data from the supplement of paper PMC8728848.
# Some of the results follow.
# Key:
# Assay in all cases: glycan array binding signal (z-score within array); higher = stronger binding
# Conditions in all cases: glycan notation: IUPAC condensed, linker removed
# Man(a1-3)[Man(a1-6)]Man = biological target: Man(a1-3)[Man(a1-6)]Man
# In short: (§1)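 Arrays were curated from the Consortium for Functional Glycomics database, 3228 in total, and kept only where the protein sequence was available. Binding is expressed as a within-array Z-score. This score was averaged across arrays of the same protein sequence at different concentrations or buffers and across linkers, and negative values can be read as non-binding.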
# [1] = biological target: Man(a1-3)[Man(a1-6)]Man(a1-6)[Man(a1-2)Man(a1-3)]Man(b1-4)GlcNAc(b1-4)GlcNAc
# In short: as §1
# [2] = biological target: Man(a1-3)[Man(a1-6)]Man(a1-6)[Man(a1-3)]Man
# In short: as §1
# [3] = biological target: Man(a1-3)[Man(a1-6)]Man(a1-6)[Man(a1-3)]Man(b1-4)GlcNAc(b1-4)GlcNAc
# In short: as §1
# [4] = biological target: Man(a1-3)[Man(a1-6)]Man(b1-4)GlcNAc(b1-4)GlcNAc
# In short: as §1
# [5] = biological target: Man(a1-3)[Man(a1-6)]Man(b1-4)GlcNAc(b1-4)[Fuc(a1-6)]GlcNAc
# In short: as §1
# Man(a1-6)Man = biological target: Man(a1-6)Man
# In short: as §1
# Man(b1-4)GlcNAc = biological target: Man(b1-4)GlcNAc
# In short: as §1
# MurNAc(b1-4)GlcNAc = biological target: MurNAc(b1-4)GlcNAc
# In short: as §1
# Neu5Ac(a2-3)Gal = biological target: Neu5Ac(a2-3)Gal
# In short: as §1
# [6] = biological target: Neu5Ac(a2-3)Gal(b1-3)GalNAc
# In short: as §1
# [7] = biological target: Neu5Ac(a2-3)Gal(b1-3)GalNAc(b1-3)Gal(a1-4)Gal(b1-4)Glc
# In short: as §1
# [8] = biological target: Neu5Ac(a2-3)Gal(b1-3)GalNAc(b1-3)Gal(b1-4)GlcNAc
# In short: as §1
# [9] = biological target: Neu5Ac(a2-3)Gal(b1-3)GalNAc(b1-4)[Neu5Ac(a2-3)]Gal(b1-4)Glc
# In short: as §1
# [10] = biological target: Neu5Ac(a2-3)Gal(b1-3)GalNAc(b1-4)[Neu5Ac(a2-8)Neu5Ac(a2-3)]Gal(b1-4)Glc
# In short: as §1
# [11] = biological target: Neu5Ac(a2-3)Gal(b1-3)GalNAc6S
# In short: as §1
# [12] = biological target: Neu5Ac(a2-3)Gal(b1-3)GlcNAc
# In short: as §1
# [13] = biological target: Neu5Ac(a2-3)Gal(b1-3)GlcNAc(b1-2)Man
# In short: as §1
# [14] = biological target: Neu5Ac(a2-3)Gal(b1-3)GlcNAc(b1-2)Man(a1-3)[GlcNAc(b1-4)][Neu5Ac(a2-3)Gal(b1-3)GlcNAc(b1-2)Man(a1-6)]Man(b1-4)GlcNAc(b1-4)GlcNAc
# In short: as §1
# [15] = biological target: Neu5Ac(a2-3)Gal(b1-3)GlcNAc(b1-2)Man(a1-3)[Neu5Ac(a2-3)Gal(b1-3)GlcNAc(b1-2)Man(a1-6)]Man(b1-4)GlcNAc(b1-4)GlcNAc
# In short: as §1
# [16] = biological target: Neu5Ac(a2-3)Gal(b1-3)GlcNAc(b1-2)[Neu5Ac(a2-3)Gal(b1-3)GlcNAc(b1-4)]Man(a1-6)[Neu5Ac(a2-3)Gal(b1-3)GlcNAc(b1-2)Man(a1-3)]Man(b1-4)GlcNAc(b1-4)GlcNAc
# In short: as §1
# [17] = biological target: Neu5Ac(a2-3)Gal(b1-3)GlcNAc(b1-3)Gal(b1-3)GlcNAc
# In short: as §1
# [18] = biological target: Neu5Ac(a2-3)Gal(b1-3)GlcNAc(b1-3)Gal(b1-4)GlcNAc
# In short: as §1
# [19] = biological target: Neu5Ac(a2-3)Gal(b1-3)GlcNAc(b1-3)GalNAc
# In short: as §1
# [20] = biological target: Neu5Ac(a2-3)Gal(b1-3)GlcNAc(b1-4)Gal(b1-4)Glc
# In short: as §1
# [21] = biological target: Neu5Ac(a2-3)Gal(b1-3)GlcNAc(b1-6)GalNAc
# In short: as §1
# [22] = biological target: Neu5Ac(a2-3)Gal(b1-3)GlcNAc6S
# In short: as §1
# [23] = biological target: Neu5Ac(a2-3)Gal(b1-3)[Fuc(a1-4)]GlcNAc
# In short: as §1
# [24] = biological target: Neu5Ac(a2-3)Gal(b1-3)[Fuc(a1-4)]GlcNAc(b1-3)Gal(b1-3)[Fuc(a1-4)]GlcNAc
# In short: as §1
# [25] = biological target: Neu5Ac(a2-3)Gal(b1-3)[Fuc(a1-4)]GlcNAc(b1-3)Gal(b1-4)[Fuc(a1-3)]GlcNAc
# In short: as §1
# [26] = biological target: Neu5Ac(a2-3)Gal(b1-3)[GlcNAc(b1-6)]GalNAc
# In short: as §1
# [27] = biological target: Neu5Ac(a2-3)Gal(b1-3)[Neu5Ac(a2-3)Gal(b1-4)]GlcNAc
# In short: as §1
# [28] = biological target: Neu5Ac(a2-3)Gal(b1-3)[Neu5Ac(a2-6)]GalNAc
# In short: as §1
# [29] = biological target: Neu5Ac(a2-3)Gal(b1-3)[Neu5Ac(a2-6)]GlcNAc(b1-3)[Fuc(a1-3)[Gal(b1-4)]GlcNAc(b1-6)]Gal(b1-4)Glc
# In short: as §1
# [30] = biological target: Neu5Ac(a2-3)Gal(b1-3)]Neu5Ac(a2-3)Gal(b1-4)]GlcNAc
# In short: as §1
# Neu5Ac(a2-3)Gal(b1-4)Glc = biological target: Neu5Ac(a2-3)Gal(b1-4)Glc
# In short: as §1
# [31] = biological target: Neu5Ac(a2-3)Gal(b1-4)GlcNAc
# In short: as §1
# [32] = biological target: Neu5Ac(a2-3)Gal(b1-4)GlcNAc(b1-2)Man
# In short: as §1
# [33] = biological target: Neu5Ac(a2-3)Gal(b1-4)GlcNAc(b1-2)Man(a1-3)[GlcNAc(b1-4)][Neu5Ac(a2-3)Gal(b1-4)GlcNAc(b1-2)Man(a1-6)]Man(b1-4)GlcNAc(b1-4)GlcNAc
# In short: as §1
# [34] = biological target: Neu5Ac(a2-3)Gal(b1-4)GlcNAc(b1-2)Man(a1-3)[Neu5Ac(a2-3)Gal(b1-4)GlcNAc(b1-2)Man(a1-6)]Man(b1-4)GlcNAc(b1-4)GlcNAc
# In short: as §1
# [35] = biological target: Neu5Ac(a2-3)Gal(b1-4)GlcNAc(b1-2)Man(a1-3)[Neu5Ac(a2-3)Gal(b1-4)GlcNAc(b1-2)Man(a1-6)]Man(b1-4)GlcNAc(b1-4)[Fuc(a1-6)]GlcNAc
# In short: as §1
# [36] = biological target: Neu5Ac(a2-3)Gal(b1-4)GlcNAc(b1-2)Man(a1-3)[Neu5Ac(a2-6)Gal(b1-4)GlcNAc(b1-2)Man(a1-6)]Man(b1-4)GlcNAc(b1-4)GlcNAc
# In short: as §1
# [37] = biological target: Neu5Ac(a2-3)Gal(b1-4)GlcNAc(b1-2)[Neu5Ac(a2-3)Gal(b1-4)GlcNAc(b1-4)]Man(a1-3)[GlcNAc(b1-4)][Neu5Ac(a2-3)Gal(b1-4)GlcNAc(b1-2)[Neu5Ac(a2-3)Gal(b1-4)GlcNAc(b1-6)]Man(a1-6)]Man(b1-4)GlcNAc(b1-4)GlcNAc
# In short: as §1
# [38] = biological target: Neu5Ac(a2-3)Gal(b1-4)GlcNAc(b1-2)[Neu5Ac(a2-3)Gal(b1-4)GlcNAc(b1-4)]Man(a1-3)[GlcNAc(b1-4)][Neu5Ac(a2-3)Gal(b1-4)GlcNAc(b1-4)Man(a1-6)]Man(b1-4)GlcNAc(b1-4)GlcNAc
# In short: as §1
# [39] = biological target: Neu5Ac(a2-3)Gal(b1-4)GlcNAc(b1-2)[Neu5Ac(a2-3)Gal(b1-4)GlcNAc(b1-6)]Man(a1-6)[Neu5Ac(a2-3)Gal(b1-4)GlcNAc(b1-2)Man(a1-3)][GlcNAc(b1-4)]Man(b1-4)GlcNAc(b1-4)GlcNAc
# In short: as §1
binder,measurement,setting,value
"BDCA-2 (Homo sapiens), Q8WTT0 (protein) MVPEEEPQDREKGLWWFQLKVWSMAVVSILLLSVCFTVSSVVPHNFMYSKTVKRLSKLREYQQYHPSLTCVMEGKDIEDWSCCPTPWTSFQSSCYFISTGMQSWTKSQKNCSVMGADLVVINTREEQDFIIQNLKRNSSYFLGLSDPGGRRHWQWVDQTPYNENVTFWHSGEPNNLDERCAIINFRSSEEWGWNDIHCHVPQKSICKMKKIYI",glycan array binding signal (z-score),Man(a1-3)[Man(a1-6)]Man,-0.213
same,glycan array binding signal (z-score),[1],-0.087
same,glycan array binding signal (z-score),[2],-0.163
same,glycan array binding signal (z-score),[3],-0.184
same,glycan array binding signal (z-score),[4],-0.165
same,glycan array binding signal (z-score),[5],-0.173
same,glycan array binding signal (z-score),Man(a1-6)Man,-0.104
same,glycan array binding signal (z-score),Man(b1-4)GlcNAc,-0.331
same,glycan array binding signal (z-score),MurNAc(b1-4)GlcNAc,-0.187
same,glycan array binding signal (z-score),Neu5Ac(a2-3)Gal,-0.068
same,glycan array binding signal (z-score),[6],-0.215
same,glycan array binding signal (z-score),[7],-0.141
same,glycan array binding signal (z-score),[8],-0.21
same,glycan array binding signal (z-score),[9],-0.233
same,glycan array binding signal (z-score),[10],-0.092
same,glycan array binding signal (z-score),[11],-0.127
same,glycan array binding signal (z-score),[12],-0.278
same,glycan array binding signal (z-score),[13],0.013
same,glycan array binding signal (z-score),[14],-0.182
same,glycan array binding signal (z-score),[15],-0.169
same,glycan array binding signal (z-score),[16],0.022
same,glycan array binding signal (z-score),[17],-0.196
same,glycan array binding signal (z-score),[18],-0.173
same,glycan array binding signal (z-score),[19],-0.145
same,glycan array binding signal (z-score),[20],-0.157
same,glycan array binding signal (z-score),[21],-0.169
same,glycan array binding signal (z-score),[22],-0.322
same,glycan array binding signal (z-score),[23],-0.28
same,glycan array binding signal (z-score),[24],-0.175
same,glycan array binding signal (z-score),[25],-0.166
same,glycan array binding signal (z-score),[26],-0.194
same,glycan array binding signal (z-score),[27],-0.192
same,glycan array binding signal (z-score),[28],-0.155
same,glycan array binding signal (z-score),[29],-0.188
same,glycan array binding signal (z-score),[30],-0.146
same,glycan array binding signal (z-score),Neu5Ac(a2-3)Gal(b1-4)Glc,-0.202
same,glycan array binding signal (z-score),[31],-0.303
same,glycan array binding signal (z-score),[32],-0.003
same,glycan array binding signal (z-score),[33],-0.174
same,glycan array binding signal (z-score),[34],-0.23
same,glycan array binding signal (z-score),[35],-0.168
same,glycan array binding signal (z-score),[36],-0.156
same,glycan array binding signal (z-score),[37],-0.159
same,glycan array binding signal (z-score),[38],-0.171
same,glycan array binding signal (z-score),[39],-0.182
